As a reminder, the % Inhibition is the change of the read-out against control, counted positive when it falls.

This note sets out measurements from ChEMBL document CHEMBL4888484, “Replenishing the malaria drug discovery pipeline: Screening and hit evaluation of the MMV Hit Generation Library 1 (HGL1) against asexual blood stage Plasmodium falciparum ,using a nano luciferase reporter read-out” (2022).

Hit rate of the full screen: of about 150,000 compounds, about 540 (0.36%) showed an effect of 50% or more. The list shows a part of the results.

The test system of this assay is Plasmodium falciparum. Briefly: Primary screen in NF54 nanoGlo assay, in single point, at 2uM, 72h; a lower Z score goes with more inhibition. Type of assay: functional, Erythrocyte. The following applies: timepoint 72 hour.
On to `O=C(CCc1cc2n(n1)CCCN(Cc1nccs1)C2)N1CCCC1`, for which the “% Inhibition” value amounted to 4% and the Z score is -0.64.
For the compound `Cc1nnc([C@@H]2CC3(CCN(C(=O)c4cccnc4)CC3)CN2CCc2ccccc2)o1`, the “% Inhibition” value was -6% and the Z score was 0.83.
Taken in the same sequence, the figures for `Cc1ccnc(CNC(=O)N2CC(C)OC(C3CC3)C2)c1` (centres undefined) were -5% and 0.97.
In the same order, the values of `Fc1ccccc1N1CCN(Cc2cc3n(n2)CCNC3)CC1` are 13% and -1.72.
For the compound `CC(C)OC(=O)CCNC(=O)N[C@@H]1COC(=O)C1`, the “% Inhibition” value is -8% and the Z score is 0.99.
For the compound `CC(C)[C@@H]1CN(C(=O)c2ccc(F)cn2)CCCN1CC1CC1`, the “% Inhibition” value was -9% and the Z score was 1.
Turning to `COc1cccc(NC(=O)c2c(-c3cccnc3)nc3ccccc3c2-c2ccccc2)c1`, the “% Inhibition” value is -9% and the Z score came to 1.16.
Taken in the same sequence, the figures for `O=C(c1nccc2ccccc12)N1CC[C@@H]2CN(Cc3cccnc3)[C@@H]2C1` were -12% and 1.52.
Taken in the same sequence, the figures for `Cc1cnc(C(=O)NCC2CCN(Cc3cc4c(cc3Cl)OCO4)CC2)cn1` were -2% and 0.39.
Take `COCc1ccc(CNc2cc(C)on2)cc1`: the “% Inhibition” value was -12% and the Z score came to 1.82.
Taken in the same sequence, the figures for `Cc1nc(C=Cc2cn(C3CCC3)nn2)sc1Br` were -6% and 0.84.
In the case of `COC[C@@H]1[C@H](C(=O)NCCC(C)C)CCC(=O)N1C`, the “% Inhibition” value came to 8% and the Z score was -1.07.
For the compound `O=C(c1ccn(C2CCCCC2)n1)N1CCc2nc[nH]c(=O)c2C1`, the “% Inhibition” value is on record as -12% and the Z score is 1.02.
In the same order, the values of `Cn1cc(C(NC(=O)NC2CCCC2)[C@H]2C[C@H](O)C2)cn1` (some centres undefined) are -9% and 1.71.
Taken in the same sequence, the figures for `COc1cc(OC)cc(C(=O)N2CCN(C3=Nc4cc(C(F)(F)F)ccc4Oc4ccc(OC)cc43)C[C@@H]2C)c1` were 6% and -0.81.
In the same order, the values of `O=C(NC[C@H]1CCCN(Cc2cncs2)C1)c1ccon1` are -2% and 0.28.
For the compound `CCn1c2c(c3ccccc31)CN(C(=O)C1CCC1)CC2`, the “% Inhibition” value is reported as -11% and the Z score worked out at 1.11.
Taken in the same sequence, the figures for `Cc1cc(NC(=O)NCCN2Cc3ccccc3OCC2=O)cs1` were -4% and 0.65.
With `NS(=O)(=O)C[C@H]1CCCN(C(=O)c2ccncc2C(F)(F)F)C1`, the “% Inhibition” value was -21% and the Z score was 2.22.
`O=c1[nH]nc(-c2ccccc2)c2nc[nH]c12`: the “% Inhibition” value turned out to be 25% and the Z score was -2.82.
In the same order, the values of `Cc1cc(C)n(CCCC(=O)N[C@@H](C)c2nc(-c3cccnc3)no2)n1` are 0% and 0.01.
Consider `Cc1cc(NCCc2ccns2)ncn1`, for which the “% Inhibition” value is -6% and the Z score is reported as 1.17.
As for `O=C1CC2(CCN(c3noc(-c4ccccc4)n3)CC2)CN1Cc1ccccc1`, the “% Inhibition” value is recorded as -4% and the Z score is given as 0.55.
In the same order, the values of `Cc1nc2ccc(NC(=O)N[C@H]3CCCN(c4ccccc4F)C3)cn2n1` are -13% and 1.35.
Consider `COC1(CNC(=O)NCC(C)(C)C(C)C)CCOCC1`, for which the “% Inhibition” value is listed as -9% and the Z score is 1.34.
With `CCN1CCN(C(=O)c2ccc(C)c(NS(=O)(=O)c3ccc(C)cc3)c2)CC1`, the “% Inhibition” value is listed as -21% and the Z score stood at 2.46.
Consider `COc1cccc([C@@H]2Cn3nnc(-c4nc(-c5cccc(Cl)c5)no4)c3CO2)c1`, for which the “% Inhibition” value was -25% and the Z score is reported as 2.27.
Taken in the same sequence, the figures for `COc1ccc(-c2cn(CC(=O)Nc3ccc(F)cc3)nc2N(C)C)cc1` were -12% and 1.39.
`Cc1cc(-c2ncccc2NC(=O)NC2CCC(S(C)(=O)=O)CC2)cs1` (centres undefined): the “% Inhibition” value is -5% and the Z score amounted to 0.96.
Regarding `CC(C(=O)Nc1ccc2c(c1)OCCCO2)N1CC2(CCC2)C1C1CCCO1` (centres undefined), the “% Inhibition” value is given as -17% and the Z score amounted to 1.7.
Taken in the same sequence, the figures for `COc1ccc2oc(CN[C@@H](C)Cn3cncn3)nc2c1` were -16% and 2.75.
In the same order, the values of `CCCN1C[C@@H](NC(=O)c2ccccc2N2CCC(=O)NC2=O)CC1=O` are -16% and 2.33.
On to `Cc1[nH]c(=O)[nH]c(=O)c1CC(=O)N(CCC(N)=O)Cc1ccccc1`, for which the “% Inhibition” value is listed as -6% and the Z score was determined as 1.17.
In the same order, the values of `COc1cc2c(cc1-c1nc3c(cnn3[C@@H](C)c3ccccc3)[nH]1)OCO2` are -4% and 0.78.
In the same order, the values of `CCn1nccc1C(=O)N1CC[C@H](Cn2c(C)cnc2C2CCC2)C1` are -9% and 1.15.
In the same order, the values of `CCn1cnc2ccc(-c3noc(-c4ccccc4Br)n3)cc21` are -22% and 2.4.
With `Cc1cccc(OC[C@]2(CNS(=O)(=O)c3ccc(F)cc3)C[C@@H](O)[C@@H](O)C2)n1`, the “% Inhibition” value was found to be 11% and the Z score is reported as -1.26.
In the case of `O=C1C2N=NN(Cc3nc(-c4ccc(Cl)cc4)no3)C2C(=O)N1c1cccc(F)c1` (centres undefined), the “% Inhibition” value is -10% and the Z score amounted to 1.17.
As to `C[C@]1(CNC(=O)c2cc3n(n2)CCC3)CCOC1`, the “% Inhibition” value was -2% and the Z score amounted to 0.33.
In the same order, the values of `O=C(Cn1nccc1[C@H]1CCCNC1)NCc1csc2c1CCCC2` are -7% and 0.89.
For `CC(C)c1ccnc(N2C[C@@H]3CCC[C@H](C2)C(=O)N3)n1`, the “% Inhibition” value is listed as -4% and the Z score is 0.61.
In the same order, the values of `OC[C@H](CNc1cncc(Br)c1)Cc1ccccn1` are -13% and 1.29.
